We go through one molecule from patent US12297265B2, “Antibody and use thereof” (SICHUAN KELUN-BIOTECH BIOPHARMACEUTICAL CO., LTD., priority 2018, dated 2025).

The test system of one series is Ba/F3-Claudin 18.2 cells. Description: ADCC activity on Ba/F3-Claudin 18.2 cells (NK-92MI_mCD16, CytoTox-Glo). It counts as cell-based. The conditions noted are these: Ba/F3-Claudin 18.2 target cells, NK-92MI_mCD16 effector cells, 6h. How it is done:
In order to evaluate the ADCC activity, ten thousand Ba/F3-Claudin18.2 cells were cultured in 40 μl NK-92 media. Antibodies were serially diluted in 10 μl PBS. Fifty thousand NK-92MI_mCD16 cells in 50 μl NK-92 media were added and the reactions were incubated at 37° C. for 6h. 33.3 μl CytoTox-Glo (Promega, G9290) was added to each reaction […].

The test system of another series is L929-Claudin 18.2 cells. Kind of series: NK cell mediated ADCC on L929-Claudin 18.2 cells (LDH). It counts as cell-based. The conditions noted are these: L929-Claudin 18.2 target cells, NK92MI-CD16a effector cells. How it is done:
(§1) The steps were as follows: HEK293T-Claudin 18.2, L929-Claudin 18.2, KATOIII-Claudin 18.2 and NUGC-4 cells were harvested and centrifuged followed by adjustment of cell density. 1×10^4/well of cells were plated on a plate and incubated overnight. The medium was removed on the next day. NK92MI-CD16a cells (Huabo Biopharm) were centrifuged, resuspended in MEMA medium and adjusted to 1×10^6/mL, then 50 μL/well cells were added to the corresponding wells. […] For HEK293T-Claudin18.2, L929-Claudin18.2 and KATOIII-Claudin18.2 cells, ten antibody concentrations were tested, starting from 40 μg/mL with 5-fold dilution. For NUGC-4 cells, eleven antibody concentrations were tested, starting from 2 mg/mL with 5-fold dilution. 50 μL/well of the diluted antibodies were added to the corresponding wells and the reactions were left to stand in incubator at 37° C., 5% CO2 and incubated for 5.5h. Lysis buffer was then added to the positive control well and incubated for another 0.5h. 50 μL/well of Lactate Dehydrogenase (LDH) detection agent (DOJINDO LABORATORISE, CK12) were added to the wells and the absorbance at 490 nm were taken every 10 min on a plate reader (MD, SpectraMax M2). The results were imported into Graphpad Prism for curve fitting.

The next series concerns NUGC-4 cells. Kind of series: NK cell mediated ADCC on NUGC-4 cells (LDH). It counts as cell-based, human. Conditions: NUGC-4 target cells, NK92MI-CD16a effector cells. On the procedure:
as §1

Series [1] concerns the target T1, human Claudin18.2 (Homo sapiens, UniProt P56856). Kind of series: Cellular ELISA on L929-Claudin 18.2 cells. In kind it is binding. The arrangement: expressed in transfected cells; host or cells: L929, infected with pLVX-IRES-puro lentivirus, puromycin-selected monoclonal line; cells were formaldehyde-fixed for the cellular ELISA. How it is done:
Human Claudin18.2 is a four transmembrane protein and has a complex structure. Cellular ELISA was thus carried out to maintain the structure of Claudin18.2. The stable cell line L929-Claudin 18.2 constructed in Example 1 were used for detection. Specifically, L929-Claudin 18.2 adherent cells were detached by 2 mM EDTA treatment. The cells were resuspended and adjusted to 2×10^5/mL and 100 μL of the resuspension was plated into 96 well plate and incubated overnight at 37° C. The next day, the media was removed, and the plate was washed with PBS once. 100 μL/well 4% formaldehyde was added to the plate. After 30 min of incubation at room temperature, formaldehyde was removed, followed by washing twice with PBS. Blocking buffer (PBS containing 2% BSA) was then added to the plate at 100 μL/well, and incubated at 37° C. for 2 h. After removal of blocking buffer, 100 μL/well of serially diluted antibodies (starting from 1 μM, with 4-fold dilution, for a total of 11 concentrations) were added to the corresponding wells, which were incubated at 37° C. for 2h afterwards. The plate was washed with 250 μL PBST for 5 times, and was allowed to stand for 2 min each time. 100 μL/well of horseradish peroxidase labeled anti-Human IgG secondary antibody (HRP-anti-Human IgG, Jackson ImmunoResearch, 109-035-003) diluted 1:10000 in PBS (containing 2% BSA) was added to the plate. The plate was incubated at 37° C. for 1 h and washed with 250 μL PB ST 6 times, wherein the plate was allowed to stand for 2 min each time. 100 μL/well of TMB solution (Thermo, 34029) was added. The reactions were incubated at 37° C. for 20 min and stopped with 50 μL 2 mol/L H2504. The absorbance at 450 nm was read on a plate reader (MD, SpectraMax M2) and the results were subjected to curve fitting by Graphpad Prism.

The target in series [2] is T1, human Claudin18.2. Description: Cellular ELISA on NUGC-4 cells. It counts as binding. The arrangement: cell lines endogenously expressing human Claudin18.2; host or cells: NUGC-4 human gastric cancer cell line. On the procedure:
Human Claudin18.2 is a four transmembrane protein and has a complex structure. Cellular ELISA was thus carried out to maintain the structure of Claudin18.2. The stable cell line L929-Claudin 18.2 constructed in Example 1 were used for detection. Specifically, L929-Claudin 18.2 adherent cells were detached by 2 mM EDTA treatment. The cells were resuspended and adjusted to 2×10^5/mL and 100 μL of the resuspension was plated into 96 well plate and incubated overnight at 37° C. The next day, the media was removed, and the plate was washed with PBS once. 100 μL/well 4% formaldehyde was added to the plate. After 30 min of incubation at room temperature, formaldehyde was removed, followed by washing twice with PBS. […] The absorbance at 450 nm was read on a plate reader (MD, SpectraMax M2) and the results were subjected to curve fitting by Graphpad Prism.
To determine binding affinity of the candidate antibodies to cell lines endogenously expressing human Claudin18.2, FACS analysis was performed to detect human Claudin18.2 expression level on NUGC-4 cells (purchased from Japan JCRB cell bank, catalog number: JCRB0834) which endogenously expresses human Claudin18.2. […] The binding affinity between candidate antibodies and NUGC-4 cells was then determined by Cellular ELISA following the same protocol as above.
In general terms: ELISA stands for enzyme-linked immunosorbent assay.

Series [3] has as its system HEK293T-Claudin 18.2 cells. Kind of series: CDC killing of HEK293T-Claudin 18.2 cells (guinea pig serum, CCK8). It counts as cell-based. The conditions noted are these: 20% guinea pig serum, 3 h. On the procedure:
The procedure is described as follows: HEK293T-Claudin 18.2 cells were harvested and centrifuged followed by adjustment of cell density. 5×10^4/well of cells were plated on a plate and incubated overnight. […] Starting from 20 μg/mL, 10 concentrations were prepared with two-fold dilution. The original cell culture media for HEK293T-Claudin 18.2 cells was removed, and the antibody dilutions were added to the corresponding wells, 100 μL/well. 10 μl/well lysis buffer was provided as the positive control. The reactions were left to stand in incubator at 37° C., 5% CO2 and incubated for 3 h. Then, CCK8 (Rhinogen, QDY-003-D) was added at 20 μl/well and allowed to react for 2h. Absorbance at 450 nm were taken on a plate reader (MD, SpectraMax M2). The results were subjected to curve fitting by Graphpad Prism.

Series [4] concerns KATOIII-Claudin 18.2 cells. Kind of series: NK cell mediated ADCC on KATOIII-Claudin 18.2 cells (LDH). It counts as cell-based. Conditions: KATOIII-Claudin 18.2 target cells, NK92MI-CD16a effector cells. How it is done:
as §1

Marks after values point to notes of the source that are not given here.

B1: 1E9.2-hz11: humanized antibody of 1E9.2; VH SEQ ID NO: 29, VL SEQ ID NO: 33; heavy chain SEQ ID NO: 102, light chain 103 (antibody)
heavy: EVQLVESGGGLVKPGGSLRLSCAASGFSFSNSAMSWVRQAPGKGLEWVSTISSGDSYTYYADSVKGRFTISRDNAKNSLYLQMNSLRAEDTAVYYCARQGYGNALDYWGQGTLVTVSS[sequence of human IgG1 constant region omitted]
light: DIVMTQSPDSLAVSLGERATINCKSSQSLLNSGNQKNYLTWYQQKPGQPPKLLIYWSSTRESGVPDRFSGSGSGTDFTLTISSLQAEDFAVYYCQNDYYYPLTFGGGTKVEIKRTVAAPSVFIFPPSDEQLKSGTASVVCLLNNFYPREAKVQWKVDNALQSGNSQESVTEQDSKDSTYSLSSTLTLSKADYEKHKVYACEVTHQGLSSPVTKSFNRGEC
modifications: heavy chain amino acid sequence of humanized antibody 1E9.2 hz11; light chain amino acid sequence of humanized antibody 1E9.2 hz11
Take B1: the “ADCC EC50” value in the series on Ba/F3-Claudin 18.2 cells was 0.041* μg/mL. Besides, in the series on Ba/F3-Claudin 18.2 cells, the Max killing rate is listed as 60.17* %. The “Max. Cytotoxicity” value with L929-Claudin 18.2 cells is on record as 46%; in the series on NUGC-4 cells it was 43%; in series [4] it was 64%. Further, the results for the “Max Signal Value (OD450)” value in the series with human Claudin18.2 [1] (Table 8 experiment) and with human Claudin18.2 [1] (Table 10 experiment) were 1 OD450 and 0.8 OD450, respectively. The “OD450 (Max signal value)” value with human Claudin18.2 [2] worked out at 0.5 OD450. Further, in series [3], the “maximal killing rate (CDC)” value is reported as “about 82%”.
